Several values for one entry are separate records, joined by “and”; a condition that tells them apart may be missing. Equal values may be shown once. Not every detail of the peptide structures is certain; ends, links or a residue may be inferred. No end group written: not given here.
Experiments:
Type in all cases: cell-based, human
[1] = tested on: SDF-1α induced THP-1 migration; experiment: THP-1 trans-well migration assay, SDF-1α as chemoattractant; conditions: for ED50 (µM) versus SDF-1α: inhibition of THP-1 migration, n.s./ns = not statistically significant; for % inhibition at 100 µM versus SDF-1α: THP-1 migration, agent at 100 µM, n.s. or dash = no statistically significant inhibition
[2] = tested on: IL8 induced THP-1 migration; experiment: THP-1 trans-well migration assay, IL8 as chemoattractant; conditions: for ED50 (µM) versus IL8: inhibition of THP-1 migration, n.s. = not statistically significant; for % inhibition at 100 µM versus IL8: THP-1 migration, agent at 100 µM, n.s. or dash = no statistically significant inhibition
Experimental: To determine whether an agent inhibits a chemokine-induced activity, such as macrophage recruitment, varying amounts of the agent are mixed with cells in the presence of a known chemoattractant. For example, a range of known concentrations of an agent, e.g., a chemokine peptide, is incubated with a defined number (e.g., 10^4 - […]) of human THP-1 monocyte cells in individual wells of the top compartment of a trans-well plate. Chemokine (such as MCP-1, MIP1α, IL8 or SDF-1α), at a concentration known to cause significant migration of THP-1 cells in the trans-well migration assay, is placed in the lower compartment (Figure 1). Cells are then incubated at 37°C for a period sufficient to allow migration, e.g., 4 hours. After incubation, the cells are gently removed from the top of the filter with a pipette, 20 µl of 20 mM EDTA in simple PBS is added into each top well, and incubated for 20 minutes at 4°C. The filter is carefully flushed with media using a gentle flow, and removed. A standard curve consisting of a two-fold dilution series of THP-1 cells (in 29 µl) is prepared to accurately quantify the number of cells that have migrated. Migrated cells are stained with 3 µl of MTT stock dye solution which is added directly into each well (5 mg/ml in RPMI-1640 without phenol red, Sigma Chemical Co.) and incubated at 37°C for 4 hours. The media is carefully aspirated from each well, and the converted dye is solubilized by 20 µl of DMSO. Absorbance of converted dye is measured at a wavelength of 595 nm using an ELISA plate reader. The number of migrated cells in each well is then determined by interpolation of the standard curve (see also Imai et al.,J. Biol. Chem., 272, 15036 (1997)).
(§1) For this assay, THP-1 cells were maintained at a density of 4 × 10^5 cells per ml in RPMI-1640 supplemented with 10% fetal calf serum + 20 µM 2-mercaptoethanol. Chemotaxis was induced in a 96-well disposable chemotaxis chamber fitted with a 5 µM polycarbonate filter (PVP free, ChemoTX, Neuroprobe Inc., Cabin John). Twenty-nine µl of chemoattractant (recombinant human chemokine; 50 ng/ml, i.e., 5.9 nM) or control (100 ng/ml TGFβ) was added to the lower compartment of each well. The framed filter was aligned with the holes in the corner of the filter frame and placed over the wells.
(§2) Five × 10^4 THP-1 cells in 25 µl of RPMI-1640 were added to the upper compartment. Peptides were dissolved in Milli Q water and then serially diluted in culture medium. In most cases, the serially diluted peptides were added to the upper compartment of the chemotaxis chamber. The chamber was incubated at 37°C in a humidified atmosphere of 5% CO2 for 4 hours.
(§3) After incubation, the cells were gently removed from the top of the filter with a pipette, 20 µl of 20 mM EDTA in PBS was added into each top well, and the mixture was incubated for 20 minutes at 4°C. The filter was then carefully flushed with media using a gentle flow, and removed. A standard curve was prepared to accurately quantify the number of THP-1 cells that had migrated. The curve was based on a two-fold dilution series of THP-1 cells (top standard 100,000 cells in 29 µl). Cells which had migrated, and in separate wells, the cells in the standards, were stained with 3 µl of MTT stock solution which was added directly into each well (5 mg/ml in RPMI 1640 without phenol red, Sigma Chemical Co.) and incubated at 37°C for 4 hours. The media was carefully aspirated from each well, and the converted dye was solubilized by 20 µl of DMSO. Absorbance of converted dye was measured at a wavelength of 595 nm using an ELISA plate reader. The number of cells that had migrated in each well was determined by interpolation of the standard curve.
To investigate the receptor specificity of peptide 3 inhibition, the ED50 was determined for peptide 3(1-12)[MCP-1] (SEQ ID NO:1) inhibition of THP-1 migration induced by chemokines which signal through different receptors than MCP-1 receptors. […]

[3] = tested on: MIP1α induced THP-1 migration; experiment: THP-1 trans-well migration assay, MIP1α as chemoattractant; conditions: for ED50 (µM) versus MIP1α: inhibition of THP-1 migration, n.s./ns = not statistically significant; for % inhibition at 100 µM versus MIP1α: THP-1 migration, agent at 100 µM, n.s. or dash = no statistically significant inhibition
[4] = tested on: TGFβ1 induced THP-1 migration; experiment: THP-1 trans-well migration assay, TGFβ1 as non-chemokine control chemoattractant; conditions: for ED50 (µM) versus TGFβ1: inhibition of THP-1 migration, n.s. = not statistically significant; for % inhibition at 100 µM versus TGFβ1: THP-1 migration, agent at 100 µM, n.s. = no statistically significant inhibition
Experimental: Any method suitable for counting cells can be used, for example, counting with a hemocytometer, incubation of the cells with MTT (see above), or FACS analysis. A negative control assay is also performed, using TGF-β or another non-chemokine chemoattractant (e.g., IL1β or TNFα). To assess whether the agent is cytotoxic, the same concentrations of agent are incubated with THP-1 cells. Agents which 1) are not cytotoxic at levels which inhibit migration, 2) are ineffective at inhibiting the negative control-induced migration, and 3) reduce or inhibit chemokine-induced THP-1 migration, are agents which fall within the scope of the invention.
as §1, §2, §3
To investigate the receptor specificity of peptide 3 inhibition, the ED50 was determined for peptide 3(1-12)[MCP-1] (SEQ ID NO:1) inhibition of THP-1 migration induced by chemokines which signal through different receptors than MCP-1 receptors. Representative chemokines included […] ("CC"), MIP-1α and RANTES, and two alpha-chemokines ("CXC"), IL-8 and SDF-1α. Additionally, to determine the specificity ofpeptide 3(1-12)[MCP-1] (SEQ ID NO:1) for chemokine receptors, TGF-beta was selected as a migration-inducing agent unrelated to the chemokine family, and as an agent which elicits a biological activity by signaling through identified, unrelated receptors.

EICADPSEEWVQ [Ser7Glu8Glu9pep3]
ED50 (µM) versus SDF-1α [1]: 5 µM
ED50 (µM) versus IL8 [2]: 9 µM
ED50 (µM) versus MIP1α [3]: 2 µM
ED50 (µM) versus TGFβ1 [4]: n.s.

EICADPSQKWVQ [Ser7peptide 3]
ED50 (µM) versus SDF-1α [1]: 4 µM
ED50 (µM) versus IL8 [2]: 3 µM
ED50 (µM) versus MIP1α [3]: 6 µM
ED50 (µM) versus TGFβ1 [4]: n.s.

EICADPKQKWIQ [Ile11peptide 3]
ED50 (µM) versus SDF-1α [1]: 7 µM
ED50 (µM) versus IL8 [2]: 2 µM
ED50 (µM) versus MIP1α [3]: 4 µM
ED50 (µM) versus TGFβ1 [4]: n.s.

KQKWVQ [Peptide 3[7-12], KQKWVQ]
ED50 (µM) versus SDF-1α [1]: 6 µM
ED50 (µM) versus IL8 [2]: 6 µM
ED50 (µM) versus MIP1α [3]: 5 µM
ED50 (µM) versus TGFβ1 [4]: n.s.

EICLDPKQKWVQ [Leu4peptide 3]
ED50 (µM) versus SDF-1α [1]: 3 µM
ED50 (µM) versus IL8 [2]: 3 µM
ED50 (µM) versus MIP1α [3]: 7 µM
ED50 (µM) versus TGFβ1 [4]: n.s.

CADPKQKWVQ [Peptide 3[3-12]]
ED50 (µM) versus SDF-1α [1]: 9 µM
ED50 (µM) versus IL8 [2]: 9 µM
ED50 (µM) versus MIP1α [3]: 7 µM
ED50 (µM) versus TGFβ1 [4]: n.s.

EICLDPKQKWIQ [Leu4Ile11peptide 3]
ED50 (µM) versus SDF-1α [1]: 3 µM
ED50 (µM) versus IL8 [2]: 3 µM
ED50 (µM) versus MIP1α [3]: 1 µM
ED50 (µM) versus TGFβ1 [4]: n.s.

NCCCC[C@H](NC(=O)[C@H](CCC(N)=O)NC(=O)[C@@H](N)CCCCN)C(=O)O [KQK]
ED50 (µM) versus SDF-1α [1]: n.s.
ED50 (µM) versus IL8 [2]: n.s.
ED50 (µM) versus MIP1α [3]: n.s.
ED50 (µM) versus TGFβ1 [4]: n.s.

EICADPKQKWVQ [Peptide 3]
% inhibition at 100 µM versus SDF-1α [1]: 107%
ED50 (µM) versus SDF-1α [1]: 10 ± 0 µM and 10 µM
% inhibition at 100 µM versus IL8 [2]: 103%
ED50 (µM) versus IL8 [2]: 14 ± 1 µM and 14 µM
% inhibition at 100 µM versus MIP1α [3]: 99%
ED50 (µM) versus MIP1α [3]: 8 ± 1 µM and 8 µM
% inhibition at 100 µM versus TGFβ1 [4]: n.s.
% inhibition at 100 µM versus TGFβ1 ([4]; listed as peptide 3(1-12)[MCP-1]): did not significantly inhibit
ED50 (µM) versus TGFβ1 [4]: n.s.

SYRRITSSKCPKEAV [Peptide 2]
% inhibition at 100 µM versus SDF-1α [1]: n.s.
ED50 (µM) versus SDF-1α [1]: n.s.
ED50 (µM) versus SDF-1α ([1]; listed as SYRRITSSKCPKEAV): ns
% inhibition at 100 µM versus IL8 [2]: n.s.
ED50 (µM) versus IL8 [2]: n.s.
% inhibition at 100 µM versus MIP1α [3]: n.s.
ED50 (µM) versus MIP1α [3]: n.s.
ED50 (µM) versus MIP1α ([3]; listed as SYRRITSSKCPKEAV): ns
% inhibition at 100 µM versus TGFβ1 [4]: n.s.
% inhibition at 100 µM versus TGFβ1 ([4]; listed as peptide 2(1-15)[MCP-1]): did not significantly inhibit
ED50 (µM) versus TGFβ1 [4]: n.s.

From patent publication EP2386565A2, “Compounds and methods to inhibit or augment an inflammatory response” (Cambridge Enterprise Ltd., priority 1999, dated 2000)
